This is one part of the list.
Tests used:
Test in all cases: glycan array binding signal (z-score within array); higher = stronger binding
Conditions in all cases: glycan notation: IUPAC condensed, linker removed
[1] = biological target: Neu5Ac(a2-3)Gal(b1-4)GlcNAc(b1-6)GalNAc
Outline: (§1)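 Glycan array binding is given as a within-array Z-score, which can be read as non-binding when negative. The arrays, 3228 of them, came from the Consortium for Functional Glycomics database and were retained only where the protein sequence was available. Z-scores were averaged across arrays of the same protein sequence at different concentrations or buffers and across linkers.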

[2] = biological target: Neu5Ac(a2-3)Gal(b1-4)GlcNAc(b1-6)[Gal(b1-3)]GalNAc
Outline: as §1

[3] = biological target: Neu5Ac(a2-3)Gal(b1-4)GlcNAc(b1-6)[Neu5Ac(a2-3)Gal(b1-3)]GalNAc
Outline: as §1

[4] = biological target: Neu5Ac(a2-3)Gal(b1-4)GlcNAc6S
Outline: as §1

[5] = biological target: Neu5Ac(a2-3)Gal(b1-4)[Fuc(a1-3)]GlcNAc
Outline: as §1

[6] = biological target: Neu5Ac(a2-3)Gal(b1-4)[Fuc(a1-3)]GlcNAc(b1-2)Man
Outline: as §1

[7] = biological target: Neu5Ac(a2-3)Gal(b1-4)[Fuc(a1-3)]GlcNAc(b1-3)Gal
Outline: as §1

[8] = biological target: Neu5Ac(a2-3)Gal(b1-4)[Fuc(a1-3)]GlcNAc(b1-3)Gal(b1-4)GlcNAc
Outline: as §1

[9] = biological target: Neu5Ac(a2-3)Gal(b1-4)[Fuc(a1-3)]GlcNAc(b1-3)Gal(b1-4)[Fuc(a1-3)]GlcNAc(b1-3)Gal(b1-4)[Fuc(a1-3)]GlcNAc
Outline: as §1

[10] = biological target: Neu5Ac(a2-3)Gal(b1-4)[Fuc(a1-3)]GlcNAc(b1-3)GalNAc
Outline: as §1

[11] = biological target: Neu5Ac(a2-3)Gal(b1-4)[Fuc(a1-3)]GlcNAc(b1-6)[Gal(b1-3)]GalNAc
Outline: as §1

[12] = biological target: Neu5Ac(a2-3)Gal(b1-4)[Fuc(a1-3)]GlcNAc(b1-6)[Neu5Ac(a2-3)Gal(b1-3)]GalNAc
Outline: as §1

[13] = biological target: Neu5Ac(a2-3)Gal(b1-4)[Fuc(a1-3)]GlcNAc6S
Outline: as §1

[14] = biological target: Neu5Ac(a2-3)Gal6S(b1-4)GlcNAc
Outline: as §1

[15] = biological target: Neu5Ac(a2-3)Gal6S(b1-4)[Fuc(a1-3)]GlcNAc
Outline: as §1

[16] = biological target: Neu5Ac(a2-3)GalNAc
Outline: as §1

[17] = biological target: Neu5Ac(a2-3)GalNAc(b1-4)GlcNAc
Outline: as §1

[18] = biological target: Neu5Ac(a2-3)[GalNAc(b1-4)]Gal(b1-4)Glc
Outline: as §1

[19] = biological target: Neu5Ac(a2-3)[GalNAc(b1-4)]Gal(b1-4)GlcNAc
Outline: as §1

[20] = biological target: Neu5Ac(a2-3)[GalNAc(b1-4)]Gal(b1-4)GlcNAc(b1-3)GalNAc
Outline: as §1

[21] = biological target: Neu5Ac(a2-3)[Neu5Ac(a2-6)]GalNAc
Outline: as §1

[22] = biological target: Neu5Ac(a2-6)Gal
Outline: as §1

[23] = biological target: Neu5Ac(a2-6)Gal(b1-3)GlcNAc(b1-3)[Gal(b1-4)GlcNAc(b1-6)]Gal(b1-4)Glc
Outline: as §1

[24] = biological target: Neu5Ac(a2-6)Gal(b1-4)Glc
Outline: as §1

[25] = biological target: Neu5Ac(a2-6)Gal(b1-4)GlcNAc
Outline: as §1

[26] = biological target: Neu5Ac(a2-6)Gal(b1-4)GlcNAc(b1-2)Man
Outline: as §1

[27] = biological target: Neu5Ac(a2-6)Gal(b1-4)GlcNAc(b1-2)Man(a1-3)Man(b1-4)GlcNAc(b1-4)GlcNAc
Outline: as §1

[28] = biological target: Neu5Ac(a2-6)Gal(b1-4)GlcNAc(b1-2)Man(a1-3)[Gal(b1-4)GlcNAc(b1-2)Man(a1-6)]Man(b1-4)GlcNAc(b1-4)GlcNAc
Outline: as §1

[29] = biological target: Neu5Ac(a2-6)Gal(b1-4)GlcNAc(b1-2)Man(a1-3)[GlcNAc(b1-2)Man(a1-6)]Man(b1-4)GlcNAc(b1-4)GlcNAc
Outline: as §1

[30] = biological target: Neu5Ac(a2-6)Gal(b1-4)GlcNAc(b1-2)Man(a1-3)[GlcNAc(b1-4)][Neu5Ac(a2-6)Gal(b1-4)GlcNAc(b1-2)Man(a1-6)]Man(b1-4)GlcNAc(b1-4)GlcNAc
Outline: as §1

[31] = biological target: Neu5Ac(a2-6)Gal(b1-4)GlcNAc(b1-2)Man(a1-3)[Man(a1-6)]Man(b1-4)GlcNAc(b1-4)GlcNAc
Outline: as §1

[32] = biological target: Neu5Ac(a2-6)Gal(b1-4)GlcNAc(b1-2)Man(a1-3)[Neu5Ac(a2-3)Gal(b1-4)GlcNAc(b1-2)Man(a1-6)]Man(b1-4)GlcNAc(b1-4)GlcNAc
Outline: as §1

[33] = biological target: Neu5Ac(a2-6)Gal(b1-4)GlcNAc(b1-2)Man(a1-3)[Neu5Ac(a2-6)Gal(b1-4)GlcNAc(b1-2)Man(a1-6)]Man(b1-4)GlcNAc(b1-4)GlcNAc
Outline: as §1

[34] = biological target: Neu5Ac(a2-6)Gal(b1-4)GlcNAc(b1-2)Man(a1-3)[Neu5Ac(a2-6)Gal(b1-4)GlcNAc(b1-2)Man(a1-6)]Man(b1-4)GlcNAc(b1-4)[Fuc(a1-6)]GlcNAc
Outline: as §1

[35] = biological target: Neu5Ac(a2-6)Gal(b1-4)GlcNAc(b1-2)Man(a1-6)Man(b1-4)GlcNAc(b1-4)GlcNAc
Outline: as §1

[36] = biological target: Neu5Ac(a2-6)Gal(b1-4)GlcNAc(b1-2)Man(a1-6)[Gal(b1-4)GlcNAc(b1-2)Man(a1-3)]Man(b1-4)GlcNAc(b1-4)GlcNAc
Outline: as §1

[37] = biological target: Neu5Ac(a2-6)Gal(b1-4)GlcNAc(b1-2)Man(a1-6)[GlcNAc(b1-2)Man(a1-3)]Man(b1-4)GlcNAc(b1-4)GlcNAc
Outline: as §1

[38] = biological target: Neu5Ac(a2-6)Gal(b1-4)GlcNAc(b1-2)Man(a1-6)[Man(a1-3)]Man(b1-4)GlcNAc(b1-4)GlcNAc
Outline: as §1

[39] = biological target: Neu5Ac(a2-6)Gal(b1-4)GlcNAc(b1-2)[Neu5Ac(a2-6)Gal(b1-4)GlcNAc(b1-4)]Man(a1-3)[GlcNAc(b1-4)][Neu5Ac(a2-6)Gal(b1-4)GlcNAc(b1-2)[Neu5Ac(a2-6)Gal(b1-4)GlcNAc(b1-6)]Man(a1-6)]Man(b1-4)GlcNAc(b1-4)GlcNAc
Outline: as §1

[40] = biological target: Neu5Ac(a2-6)Gal(b1-4)GlcNAc(b1-2)[Neu5Ac(a2-6)Gal(b1-4)GlcNAc(b1-4)]Man(a1-3)[GlcNAc(b1-4)][Neu5Ac(a2-6)Gal(b1-4)GlcNAc(b1-4)Man(a1-6)]Man(b1-4)GlcNAc(b1-4)GlcNAc
Outline: as §1

[41] = biological target: Neu5Ac(a2-6)Gal(b1-4)GlcNAc(b1-2)[Neu5Ac(a2-6)Gal(b1-4)GlcNAc(b1-6)]Man(a1-6)[Neu5Ac(a2-6)Gal(b1-4)GlcNAc(b1-2)Man(a1-3)][GlcNAc(b1-4)]Man(b1-4)GlcNAc(b1-4)GlcNAc
Outline: as §1

[42] = biological target: Neu5Ac(a2-6)Gal(b1-4)GlcNAc(b1-3)Gal(b1-3)GlcNAc
Outline: as §1

[43] = biological target: Neu5Ac(a2-6)Gal(b1-4)GlcNAc(b1-3)Gal(b1-4)GlcNAc
Outline: as §1

[44] = biological target: Neu5Ac(a2-6)Gal(b1-4)GlcNAc(b1-3)Gal(b1-4)GlcNAc(b1-2)Man(a1-3)[Neu5Ac(a2-6)Gal(b1-4)GlcNAc(b1-3)Gal(b1-4)GlcNAc(b1-2)Man(a1-6)]GalNAc
Outline: as §1

[45] = biological target: Neu5Ac(a2-6)Gal(b1-4)GlcNAc(b1-3)Gal(b1-4)GlcNAc(b1-3)Gal(b1-4)GlcNAc
Outline: as §1

B1: PfulAvr4 (Pseudocercospora fuligena) (protein)
chain: HHHHHHDYKDDDDKTYVQDKTPAFVCPAADIKTTKCLGPKDCLYPSPKTCNGYIQCSPADDSYLTGIIHEMPCPSGLLWNDNKKWCDWPENTTCGLVKSAGATEVDATKQGPTPGKYHG
glycan array binding signal (z-score) [1]: -0.122 | glycan array binding signal (z-score) [2]: -0.053 | glycan array binding signal (z-score) [3]: -0.154 | glycan array binding signal (z-score) [4]: -0.197 | glycan array binding signal (z-score) [5]: -0.109 | glycan array binding signal (z-score) [6]: -0.069 | glycan array binding signal (z-score) [7]: -0.013 | glycan array binding signal (z-score) [8]: -0.007 | glycan array binding signal (z-score) [9]: -0.005 | glycan array binding signal (z-score) [10]: 0.042 | glycan array binding signal (z-score) [11]: -0.093 | glycan array binding signal (z-score) [12]: -0.2 | glycan array binding signal (z-score) [13]: -0.188 | glycan array binding signal (z-score) [14]: -0.163 | glycan array binding signal (z-score) [15]: -0.146 | glycan array binding signal (z-score) [16]: -0.09 | glycan array binding signal (z-score) [17]: -0.102 | glycan array binding signal (z-score) [18]: -0.095 | glycan array binding signal (z-score) [19]: -0.141 | glycan array binding signal (z-score) [20]: -0.162 | glycan array binding signal (z-score) [21]: -0.131 | glycan array binding signal (z-score) [22]: -0.172 | glycan array binding signal (z-score) [23]: -0.105 | glycan array binding signal (z-score) [24]: -0.14 | glycan array binding signal (z-score) [25]: -0.136 | glycan array binding signal (z-score) [26]: 0.054 | glycan array binding signal (z-score) [27]: -0.137 | glycan array binding signal (z-score) [28]: 3.32 | glycan array binding signal (z-score) [29]: -0.093 | glycan array binding signal (z-score) [30]: -0.114 | glycan array binding signal (z-score) [31]: -0.088 | glycan array binding signal (z-score) [32]: -0.049 | glycan array binding signal (z-score) [33]: -0.056 | glycan array binding signal (z-score) [34]: 0.015 | glycan array binding signal (z-score) [35]: -0.045 | glycan array binding signal (z-score) [36]: -0.083 | glycan array binding signal (z-score) [37]: -0.162 | glycan array binding signal (z-score) [38]: -0.033 | glycan array binding signal (z-score) [39]: -0.175 | glycan array binding signal (z-score) [40]: -0.133 | glycan array binding signal (z-score) [41]: -0.068 | glycan array binding signal (z-score) [42]: -0.171 | glycan array binding signal (z-score) [43]: -0.057 | glycan array binding signal (z-score) [44]: -0.052 | glycan array binding signal (z-score) [45]: -0.099

— the supplement of paper PMC8728848
